According to PubChem BioAssay AID504832 (National Center for Advancing Translational Sciences (NCATS), 2011):
In all, about 310,000 compounds went through this assay and about 18,000 (5.8%) were called active. The shares of active, inactive and inconclusive entries below differ from those in the screen. Calls follow the shape of the dose curve; as a rule, active = well fitted inhibition curve with a large enough effect; inconclusive = small, poorly fitted or top-dose-only effect, or another doubt; inactive = no such curve, though single readings can be large or run the other way. No potency is given beside an inconclusive call; the fits are too rough.

test: Primary qHTS for delayed death inhibitors of the malarial parasite plastid, 48 hour incubation; settings: P. falciparum luciferase growth in erythrocytes; series mostly up to 28.7 µM; activity change, negative = inhibition: at the top concentration
Procedure, shortened: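 Luciferase-expressing P. falciparum in infected erythrocytes (2% hematocrit, 0.1% parasitemia final) in RPMI 1640/0.5% Albumax were exposed to compound for 48 hours at 37 C, 5% CO2; growth read as luminescence.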
% is scaled to controls: 0 for no effect and ±100 for the full control effect; potency is read from the fitted curve at half-maximal effect; tags tell the direction and shape of the fitted curve.

Row | Structure (SMILES) | Potency | activity change, negative = inhibition
1 | COc1ccc(C)cc1NC(=O)CCN1CC(C)OC(C)C1 (stereo not given) | inconclusive [inhibitor, single point] | –
2 | COC(=O)c1cc(OC)c(OC)cc1NC(=O)CCNC(=O)c1ccco1 | – | inactive: 0%
3 | Cn1c(=O)c2c(nc(CN3CCN(Cc4ccccc4)CC3)n2Cc2cccc(Cl)c2)n(C)c1=O | active: 2.08 µM | –
4 | COc1ccc(C(=O)Sc2nncc3ccccc23)cc1 | – | inactive: 36.3%
5 | Cc1cc(-c2ccccc2)nc(N2CCN(c3ccccn3)CC2)n1 | – | inactive: 3.46%
6 | CN(c1ccc(OCC(=O)N2CCN(C/C=C/c3ccccc3)CC2)cc1)S(=O)(=O)c1cccs1 | active: 9.28 µM | –
7 | Cc1ccc(OCc2csc(N)n2)cc1 | – | inactive: 425%
8 | Cc1ccc(OCCCCNC2CCCCC2)c(C)c1 | inconclusive [inhibitor, full curve, poor fit] | –
9 | O=C(N/N=C/c1ccsc1)C1CC1 | – | inactive: 28.6%
10 | CCCn1c(SCC(=O)N2CCN(C(C)=O)CC2)nc2sc3c(c2c1=O)CCC3 | inconclusive [inhibitor, full curve, poor fit] | –
11 | Cc1ccnc2nc(C(=O)Nc3cc(Cl)ccc3N3CCOCC3)nn12 | active: 0.147 µM | –
12 | c1ccc(CN2CCN(CCOCCOc3cccc4ccccc34)CC2)cc1 | inconclusive [inhibitor, partial curve, poor fit] | –
13 | Cc1ccc(-c2cc(-c3ccccc3)no2)c(O)c1 | inconclusive [inhibitor, partial curve, poor fit] | –
14 | CCCN1C(=O)/C(=C/c2cc(C)n(C)c2C)SC1=Nc1ccc(OCC)cc1 | inconclusive [inhibitor, single point] | –
15 | CC(C)C[C@H](NC(=O)c1nc[nH]c1C(=O)N1CCN(C(=O)OC(C)(C)C)CC1)C(=O)OCc1ccccc1 | inconclusive [inhibitor, single point] | –
16 | Cc1ccc(CN2CCN(Cc3cnc(N4CCOCC4)s3)CC2CCO)o1 (stereo not given) | – | inactive: 2.44%
17 | Cc1noc(C)c1COC(=O)C1COc2ccccc2O1 (stereo not given) | – | inactive: 11.9%
18 | COc1ccc2c(c1)[nH]c1c(=O)n(/N=C/c3ccc(OC)c(CN4CCCC4)c3)cnc12 | active: 4.15 µM | –
19 | COc1ccc(N2CCN(C3CCCN(Cc4cccc(C(C)=O)c4)C3)CC2)cc1 (stereo not given) | inconclusive [inhibitor, partial curve] | –
20 | O=C(c1ccoc1)N1CCC2(CC1)Oc1ccc(Cl)cc1C(=O)C21CC(c2cccnc2)=NO1 (stereo not given) | inconclusive [inhibitor, single point] | –
21 | Cc1nn(CC(=O)Nc2cc(S(=O)(=O)N(C)C)ccc2Cl)c(C)c1[N+](=O)[O-] | – | inactive: -7.18%
22 | Cc1noc(C)c1CSCC(=O)Nc1cc(S(=O)(=O)N2CCOCC2)ccc1OCC(F)(F)F | inconclusive [inhibitor, partial curve, poor fit] | –
23 | CCOC(=O)Nc1ccc2c(c1)N(C(=O)CN1CCN3CCCC3C1)c1ccccc1CC2 (stereo not given) | inconclusive [inhibitor, partial curve] | –

Row | Structure (SMILES) | Potency | activity change, negative = inhibition
24 | O=C(CF)NC(NC(=S)Nc1ccccc1O)C(Cl)(Cl)Cl (stereo not given) | inconclusive [inhibitor, single point] | –
25 | Cc1c(NS(=O)(=O)c2cc(C(=O)NCc3ccco3)cc(Cl)c2Cl)c(=O)n(-c2ccccc2)n1C | inconclusive [inhibitor, single point] | –
26 | CCc1ccc(CC2S/C(=C(\C#N)C(C)=O)NC2=O)cc1 (stereo not given) | inconclusive [inhibitor, partial curve, poor fit] | –
27 | COc1ccc(CC(=O)NNS(=O)(=O)c2ccc([N+](=O)[O-])cc2)cc1OC | – | inactive: 4.14%
28 | CCCc1cc(C(=O)N2CCCC(Cc3cccc(Cl)c3)(C(=O)OCC)C2)n(C)n1 (stereo not given) | inconclusive [inhibitor, partial curve] | –
29 | CCC(SC1=N/C(=C/c2ccccc2)C(=O)N1c1ccccc1)C(=O)Nc1cc(C)on1 (stereo not given) | active: 5.86 µM | –
30 | COc1ccccc1CN(C)C(=O)CN1CCN(CC(=O)Nc2ccccc2Cl)CC1 | inconclusive [inhibitor, single point] | –
31 | CCN(CC(=O)Nc1ccc(NC(C)=O)cc1)C(=O)c1cccc(S(=O)(=O)N2c3ccccc3CC2C)c1 (stereo not given) | inconclusive [inhibitor, single point] | –
32 | COc1ccccc1N1CCN(C(=S)NC(=O)/C=C/c2ccccc2)CC1 | inconclusive [inhibitor, single point] | –
33 | O=C(N/N=C/c1cccc([N+](=O)[O-])c1)C1CC(=O)N(c2ccc(Cl)cc2)C1 (stereo not given) | inconclusive [inhibitor, single point] | –
34 | COc1ccc(N2CCC(CNC(=O)Nc3ccc(OC)cc3OC)C2)cc1 (stereo not given) | inconclusive [inhibitor, partial curve] | –
35 | CCOc1ccc(NC(=O)[C@@H]2CCCN2C(=O)c2cccs2)cc1S(=O)(=O)N1CCCCC1 | inconclusive [inhibitor, single point] | –
36 | C=CCN=C1CC(C)(C)CC(=O)/C1=C(\O)CCCN1C(=O)c2ccccc2C1=O | – | inactive: 9.89%
37 | Cc1ccc(-c2cc(C(=O)N/N=C/c3ccccc3O)n[nH]2)o1 | active: 5.22 µM | –
38 | CC(=O)c1ccc(N2CCN(C(=S)Nc3cc(C)ccc3C)CC2)cc1 | active: 10.4 µM | –
39 | Cc1ccc(N=C(N)N=C(N)N)cc1 | active: 9.28 µM | –
40 | COc1ccc(NC(=O)CNC(=O)c2nn(-c3ccc(OC)c(Cl)c3)c(=O)c3ccccc23)c(OC)c1 | active: 9.28 µM | –
41 | CCSc1nnc(NC(=O)/C=C/c2ccco2)s1 | – | inactive: 103%
42 | O=C(Nc1cc(S(=O)(=O)N2CCOCC2)ccc1Cl)c1cc2ccccc2o1 | inconclusive [inhibitor, single point] | –
43 | CC(=O)Nc1ccc(NC(=O)C(C)Sc2nc3ccccc3c(=O)n2Cc2ccco2)cc1 (stereo not given) | inconclusive [inhibitor, partial curve] | –
44 | CCn1c(SCC(=O)N2CCCCC2)nnc1-c1ccc(S(=O)(=O)N2CCN(C)CC2)cc1 | – | inactive: 10.5%
45 | O=C(CN(c1ccccc1)S(=O)(=O)c1ccccc1[N+](=O)[O-])NN=C1CCCCCCC1 | inconclusive [inhibitor, single point] | –
